In paper PMC4336329 (PLoS ONE, 2015):
Out of some 310,000 compounds screened, about 2,200 (0.71%) showed an effect of 50% or more. The effect is printed as a negative number. The list shows a part of the results.

Target: human ether-à-go-go-related gene (hERG) potassium channel (human, UniProt Q12809)
Test: primary screen, population patch clamp on CHO cells stably expressing hERG

Chain of human ether-à-go-go-related gene (hERG) potassium channel (Q12809 whole entry, looked up): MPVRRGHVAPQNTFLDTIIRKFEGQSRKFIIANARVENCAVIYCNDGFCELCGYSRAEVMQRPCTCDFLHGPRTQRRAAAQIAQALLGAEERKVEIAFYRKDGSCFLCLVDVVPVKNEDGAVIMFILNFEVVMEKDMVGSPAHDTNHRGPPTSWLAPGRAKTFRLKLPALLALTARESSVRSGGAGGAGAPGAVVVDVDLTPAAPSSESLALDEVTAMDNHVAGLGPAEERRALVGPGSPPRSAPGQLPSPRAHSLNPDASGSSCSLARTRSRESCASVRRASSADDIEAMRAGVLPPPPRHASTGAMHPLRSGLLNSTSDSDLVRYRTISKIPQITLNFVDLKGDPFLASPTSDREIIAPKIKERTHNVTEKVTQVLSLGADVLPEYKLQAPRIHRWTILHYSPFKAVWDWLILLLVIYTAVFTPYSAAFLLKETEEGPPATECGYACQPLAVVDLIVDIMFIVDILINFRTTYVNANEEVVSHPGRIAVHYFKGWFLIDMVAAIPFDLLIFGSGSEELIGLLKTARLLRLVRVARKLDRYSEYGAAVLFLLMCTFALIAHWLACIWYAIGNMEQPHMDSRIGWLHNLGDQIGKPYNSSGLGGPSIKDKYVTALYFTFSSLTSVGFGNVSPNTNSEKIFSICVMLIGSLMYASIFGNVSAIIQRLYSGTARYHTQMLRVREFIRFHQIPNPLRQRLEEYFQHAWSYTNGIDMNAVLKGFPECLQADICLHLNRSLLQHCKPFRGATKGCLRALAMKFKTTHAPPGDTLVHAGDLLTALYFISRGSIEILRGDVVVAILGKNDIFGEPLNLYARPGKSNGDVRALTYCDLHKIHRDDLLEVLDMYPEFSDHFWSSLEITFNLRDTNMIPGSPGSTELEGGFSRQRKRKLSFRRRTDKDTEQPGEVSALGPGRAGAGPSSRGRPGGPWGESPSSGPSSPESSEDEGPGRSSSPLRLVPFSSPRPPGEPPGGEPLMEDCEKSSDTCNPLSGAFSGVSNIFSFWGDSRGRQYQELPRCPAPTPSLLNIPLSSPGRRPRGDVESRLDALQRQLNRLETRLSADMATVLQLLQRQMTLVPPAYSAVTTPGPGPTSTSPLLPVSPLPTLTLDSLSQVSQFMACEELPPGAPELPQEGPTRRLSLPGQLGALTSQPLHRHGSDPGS

Row | SMILES | hERG current change (%, negative = inhibition) at 1uM
1 | CCC(=O)Nc1ccc(C=C(C(C)=O)C(C)=O)cc1 | 19.7%
2 | CCCc1cc(=O)[nH]c(SCC(=O)N2CCOCC2)n1 | 11.9%
3 | CC(C)COc1ccc(C(=O)NNC(=O)c2ccc(=O)[nH]c2)cc1 | 5.99%
4 | Cn1nnc(NC(=S)NC(=O)c2cc3ccccc3o2)n1 | 14.8%
5 | COC1CC(C)NC(=S)N1 (centres unmarked) | 14.8%
6 | Cc1ccccc1C(=O)N1CCN(c2ccc(NC(=O)c3cccc(OC(C)C)c3)cc2)CC1 | 10.4%
7 | CCCc1cc(=O)n2[nH]c(-c3ccc(OC)cc3)nc2n1 | -3.28%
8 | O=C(C(Cc1ccccc1)N1C(=O)C2C3C=CC(C3)C2C1=O)N1CCCCC1 (centres unmarked) | 13.1%
9 | Cc1ccc(NC(=O)CSCC(=O)Nc2cc(C(F)(F)F)ccc2N2CCOCC2)cc1 | 5.26%
10 | CCOc1ccc(N(CC(=O)NCC2CCCO2)S(=O)(=O)c2ccc(Cl)cc2)cc1 (centres unmarked) | -16.1%
11 | CC(C)CCNC(=O)[C@H](Cc1ccccc1)N1Cc2ccccc2C1=O | 12.3%
12 | CCOC(=O)N1CCC(NC(=O)CS(=O)(=O)Cc2nc(-c3ccc(OC)cc3)oc2C)CC1 | 18.6%
13 | COc1ccccc1-c1nnc(SCC(=O)Nc2ccc(S(N)(=O)=O)cc2)n1C | -2.34%
14 | N#Cc1ccc(NC(=O)COC(=O)C2Cc3ccccc3CN2C(=O)c2ccccc2)cc1 (centres unmarked) | 3.93%
15 | COc1cc(C2C(C(C)=O)=C(O)C(=O)N2CCc2c[nH]c3ccccc23)ccc1O (centres unmarked) | 1.02%
16 | O=[N+]([O-])c1ccccc1-c1cc(-c2ccccc2O)n[nH]1 | 17.7%
17 | COc1ccccc1NCCC(=O)OCC(=O)NC1CCCCC1 | 5.87%
18 | O=C(CSc1nnc(CCCO)n1-c1ccccc1)NCCc1ccccc1 | 5.42%
19 | O=C(c1ccco1)n1nc(NCc2ccccc2)nc1NCc1ccccc1 | 5.6%
20 | CC(=O)Nc1ccc(O)cc1 | 13.6%
21 | O=C(O)CCSc1nnc(-c2ccc3c(c2)OCO3)o1 | 8.61%
22 | Cc1cc(C)nc(N/N=C/c2cccc3ccccc23)n1 | 16.8%

Row | SMILES | hERG current change (%, negative = inhibition) at 1uM
23 | CCCCC(=O)Nc1nnc(S(=O)(=O)N2CCCCCC2)s1 | 11.6%
24 | Cc1ccccc1Cn1cc(NC(=O)COc2ccccc2)cn1 | 13%
25 | CCOc1ccc(S(=O)(=O)N2CCN(Cc3ccco3)CC2)cc1 | 6.45%
26 | O=c1oc2ccccc2c(NCCc2ccccc2)c1[N+](=O)[O-] | 2.5%
27 | Cc1cc(Cc2ccc(N)c(C)c2)ccc1N | 12%
28 | Cc1cc(=O)nc2c3ccccc3n(C(C)C(=O)Nc3cc(F)ccc3F)n12 (centres unmarked) | 2.3%
29 | O=C(O)C(=O)/C(=C\c1cccc2ccccc12)c1ccc2ccccc2n1 | 16.7%
30 | CN(C)C(=O)c1ccc(NC(=O)c2ccccc2SCC(=O)N2CCCC2)cc1 | 9.77%
31 | O=C1CC(Cc2ccc(Cl)cc2)C(=O)N1c1ccncc1 (centres unmarked) | 1.95%
32 | CC(=O)NC(Cc1c[nH]c2ccccc12)C(=O)NCc1ccc2c(c1)OCO2 (centres unmarked) | 1.36%
33 | Cc1ccc(C2CC(=O)c3cnc(N4CCN(c5ccccc5)CC4)nc3C2)cc1 (centres unmarked) | 5.58%
34 | COc1cccc(CN2CCN(Cc3cc(OC)c(OC)c(OC)c3)CC2)c1OC.O=C(O)C(=O)O | 6.27%
35 | Oc1ccc(C(=S)N2CCCCC2)cc1Cl | 5.43%
36 | O=C(c1cc2ccccc2o1)N1CCN=C1SCc1cccnc1 | 4.85%
37 | Cc1cc(C(=O)NC(C)c2ccncc2)cs1 (centres unmarked) | -8.55%
38 | Cc1cc(=O)[nH]c(SCC(=O)Nc2cc(S(=O)(=O)N(C)C)ccc2Cl)n1 | 20.3%
39 | COc1ccc(NC(=S)N2CCN(Cc3ccc(C)cc3)CC2)cc1 | -14.9%
40 | O=C(c1cccs1)N1CCC(C(=O)N2CCN(Cc3ccc4c(c3)OCO4)CC2)CC1 | -5.68%
41 | N#CCCN(C(=O)COC(=O)c1cccc(S(=O)(=O)Nc2ccc([N+](=O)[O-])cc2)c1)c1ccccc1 | 3.53%
42 | CC(=O)c1ccc(S(=O)(=O)N2CCN(C(=O)CSc3ccc(F)cc3)CC2)cc1 | 14.2%
43 | Nc1nnc(-c2ccc(Cl)cc2)s1 | 16.9%
44 | O=C(N=C1SC2CS(=O)(=O)CC2N1CCc1ccccc1)C1CC1 (centres unmarked) | 9.32%
